Test results taken from patent US20240392031A1 (BICARA THERAPEUTICS, published 2024).
Where a chain is given by its changes, count along the chain named. Names may count otherwise. Read-outs that look alike come from different tables or passages of the source.

B1: BCA369, anti-hCAIX hIL-12 fusion protein (hIL-12p40 W37A) (other)
heavy 1: EVRLVESGGGLVKPGGSLRLSCAASGFTFSNYYMSWIRQAPEKRLELVSAINSDGGITYYLDTVKGRFTISRDNAKNSLYLQMNSLRAEDTALFYCARHRSGYFSMDYWGQGTSVTVSS[human IgG1 constant region with changes left out here]GGGGSGGGGSGGGGSIWELKKDVYVVELDAYPDAPGEMVVLTCDTPEEDGITWTLDQSSEVLGSGKTLTIQVKEFGDAGQYTCHKGGEVLSHSLLLLHKKEDGIWSTDILKDQKEPKNKTFLRCEAKNYSGRFTCWWLTTISTDLTFSVKSSRGSSDPQGVTCGAATLSAERVRGDNKEYEYSVECQEDSACPAAEESLPIEVMVDAVHKLKYENYTSSFFIRDIIKPDPPKNLQLKPLKNSRQVEVSWEYPDTWSTPHSYFSLTFCVQVQGKSKREKKDRVFTDKTSATVICRKNASISVRAQDRYYSSSWSEWASVPCS
heavy 2: EVRLVESGGGLVKPGGSLRLSCAASGFTFSNYYMSWIRQAPEKRLELVSAINSDGGITYYLDTVKGRFTISRDNAKNSLYLQMNSLRAEDTALFYCARHRSGYFSMDYWGQGTSVTVSSASTKGPSVFPLAPSSKSTSGGTAALGCLVKDYFPEPVTVSWNSGALTSGVHTFPAVLQSSGLYSLSSVVTVPSSSLGTQTYICNVNHKPSNTKVDKKV[human IgG1 Fc with changes left out here]GGGGSGGGGSGGGGSRNLPVATPDPGMFPCLHHSQNLLRAVSNMLQKARQTLEFYPCTSEEIDHEDITKDKTSTVEACLPLELTKNESCLNSRETSFITNGSCLASRKTSFMMALCLSSIYEDLKMYQVEFKTMNAKLLMDPKRQIFLDQNMLAVIDELMQALNFNSETVPQKSSLEEPDFYKTKIKLCILLHAFRIRAVTIDRVMSYLNAS
light: EIVMTQSPATLSVSPGERATLSCKASQNVVSAVAWYQQKPGQSPRLLIYSASNRYTGIPARFSGSGSGTEFTLTISSLQSEDFAAYYCQQYRNYPWTFGGGTKVEIKRTVAAPSVFIFPPSDEQLKSGTASVVCLLNNFYPREAKVQWKVDNALQSGNSQESVTEQDSKDSTYSLSSTLTLSKADYEKHKVYACEVTHQGLSSPVTKSFNRGEC
B2: BCA324.16, anti-hCAIX hIL-12 fusion protein (hIL-12p35 variant D: F188A) (other)
heavy 1: EVRLVESGGGLVKPGGSLRLSCAASGFTFSNYYMSWIRQAPEKRLELVSAINSDGGITYYLDTVKGRFTISRDNAKNSLYLQMNSLRAEDTALFYCARHRSGYFSMDYWGQGTSVTVSS[human IgG1 constant region with changes left out here]GGGGSGGGGSGGGGSIWELKKDVYVVELDWYPDAPGEMVVLTCDTPEEDGITWTLDQSSEVLGSGKTLTIQVKEFGDAGQYTCHKGGEVLSHSLLLLHKKEDGIWSTDILKDQKEPKNKTFLRCEAKNYSGRFTCWWLTTISTDLTFSVKSSRGSSDPQGVTCGAATLSAERVRGDNKEYEYSVECQEDSACPAAEESLPIEVMVDAVHKLKYENYTSSFFIRDIIKPDPPKNLQLKPLKNSRQVEVSWEYPDTWSTPHSYFSLTFCVQVQGKSKREKKDRVFTDKTSATVICRKNASISVRAQDRYYSSSWSEWASVPCS
heavy 2: EVRLVESGGGLVKPGGSLRLSCAASGFTFSNYYMSWIRQAPEKRLELVSAINSDGGITYYLDTVKGRFTISRDNAKNSLYLQMNSLRAEDTALFYCARHRSGYFSMDYWGQGTSVTVSSASTKGPSVFPLAPSSKSTSGGTAALGCLVKDYFPEPVTVSWNSGALTSGVHTFPAVLQSSGLYSLSSVVTVPSSSLGTQTYICNVNHKPSNTKVDKKV[human IgG1 Fc with changes left out here]GGGGSGGGGSGGGGSRNLPVATPDPGMFPCLHHSQNLLRAVSNMLQKARQTLEFYPCTSEEIDHEDITKDKTSTVEACLPLELTKNESCLNSRETSFITNGSCLASRKTSFMMALCLSSIYEDLKMYQVEFKTMNAKLLMDPKRQIFLDQNMLAVIDELMQALNFNSETVPQKSSLEEPDAYKTKIKLCILLHAFRIRAVTIDRVMSYLNAS
light: B1 light with R92S
B3: BCA374, anti-hCAIX hIL-12 fusion protein (hIL-12p40 W37A, K217A) (other)
heavy 1: EVRLVESGGGLVKPGGSLRLSCAASGFTFSNYYMSWIRQAPEKRLELVSAINSDGGITYYLDTVKGRFTISRDNAKNSLYLQMNSLRAEDTALFYCARHRSGYFSMDYWGQGTSVTVSS[human IgG1 constant region with changes left out here]GGGGSGGGGSGGGGSIWELKKDVYVVELDAYPDAPGEMVVLTCDTPEEDGITWTLDQSSEVLGSGKTLTIQVKEFGDAGQYTCHKGGEVLSHSLLLLHKKEDGIWSTDILKDQKEPKNKTFLRCEAKNYSGRFTCWWLTTISTDLTFSVKSSRGSSDPQGVTCGAATLSAERVRGDNKEYEYSVECQEDSACPAAEESLPIEVMVDAVHALKYENYTSSFFIRDIIKPDPPKNLQLKPLKNSRQVEVSWEYPDTWSTPHSYFSLTFCVQVQGKSKREKKDRVFTDKTSATVICRKNASISVRAQDRYYSSSWSEWASVPCS
heavy 2: EVRLVESGGGLVKPGGSLRLSCAASGFTFSNYYMSWIRQAPEKRLELVSAINSDGGITYYLDTVKGRFTISRDNAKNSLYLQMNSLRAEDTALFYCARHRSGYFSMDYWGQGTSVTVSSASTKGPSVFPLAPSSKSTSGGTAALGCLVKDYFPEPVTVSWNSGALTSGVHTFPAVLQSSGLYSLSSVVTVPSSSLGTQTYICNVNHKPSNTKVDKKV[human IgG1 Fc with changes left out here]GGGGSGGGGSGGGGSRNLPVATPDPGMFPCLHHSQNLLRAVSNMLQKARQTLEFYPCTSEEIDHEDITKDKTSTVEACLPLELTKNESCLNSRETSFITNGSCLASRKTSFMMALCLSSIYEDLKMYQVEFKTMNAKLLMDPKRQIFLDQNMLAVIDELMQALNFNSETVPQKSSLEEPDFYKTKIKLCILLHAFRIRAVTIDRVMSYLNAS
light: B1 light
B4: BCA372, anti-hCAIX hIL-12 fusion protein (hIL-12p40 K219A) (other)
heavy 1: EVRLVESGGGLVKPGGSLRLSCAASGFTFSNYYMSWIRQAPEKRLELVSAINSDGGITYYLDTVKGRFTISRDNAKNSLYLQMNSLRAEDTALFYCARHRSGYFSMDYWGQGTSVTVSS[human IgG1 constant region with changes left out here]GGGGSGGGGSGGGGSIWELKKDVYVVELDWYPDAPGEMVVLTCDTPEEDGITWTLDQSSEVLGSGKTLTIQVKEFGDAGQYTCHKGGEVLSHSLLLLHKKEDGIWSTDILKDQKEPKNKTFLRCEAKNYSGRFTCWWLTTISTDLTFSVKSSRGSSDPQGVTCGAATLSAERVRGDNKEYEYSVECQEDSACPAAEESLPIEVMVDAVHKLAYENYTSSFFIRDIIKPDPPKNLQLKPLKNSRQVEVSWEYPDTWSTPHSYFSLTFCVQVQGKSKREKKDRVFTDKTSATVICRKNASISVRAQDRYYSSSWSEWASVPCS
heavy 2: EVRLVESGGGLVKPGGSLRLSCAASGFTFSNYYMSWIRQAPEKRLELVSAINSDGGITYYLDTVKGRFTISRDNAKNSLYLQMNSLRAEDTALFYCARHRSGYFSMDYWGQGTSVTVSSASTKGPSVFPLAPSSKSTSGGTAALGCLVKDYFPEPVTVSWNSGALTSGVHTFPAVLQSSGLYSLSSVVTVPSSSLGTQTYICNVNHKPSNTKVDKKV[human IgG1 Fc with changes left out here]GGGGSGGGGSGGGGSRNLPVATPDPGMFPCLHHSQNLLRAVSNMLQKARQTLEFYPCTSEEIDHEDITKDKTSTVEACLPLELTKNESCLNSRETSFITNGSCLASRKTSFMMALCLSSIYEDLKMYQVEFKTMNAKLLMDPKRQIFLDQNMLAVIDELMQALNFNSETVPQKSSLEEPDFYKTKIKLCILLHAFRIRAVTIDRVMSYLNAS
light: B1 light

Key:
Assay in all cases: cell-based or functional assay
[1] = molecular target: T1, human IL-12 receptor (hIL-12R), heterodimer of hIL-12Rβ1 and hIL-12Rβ2 (human, UniProt P42701 24-662; Q99665 24-862)
[2] = molecular target: T1, human IL-12 receptor (hIL-12R), …; remark: listed apart in the source
[3] = molecular target: T1, human IL-12 receptor (hIL-12R), …; remark: listed apart in the source

Row | Binder | Fold Attenuation (Over Fc-IL-12 Control); HEK-Blue IL-12 reporter assay [1] | Fold Attenuation (Over Fc-IL-12 Control); HEK-Blue IL-12 reporter assay [2] | HEK-IL12 reporter assay Attenuation (summary table) [3]
1 | B1 | 8 fold | – | –
2 | B2 | – | 1 fold | –
3 | B3 | 43 fold | – | 43 fold
4 | B4 | 2 fold | – | 2 fold
